# Reference: article PMC4336329 (PLoS ONE, 2015)
# The whole screen tested about 310,000 compounds, of which about 14,000 (4.5%) showed an effect of 50% or more. The effect is printed as a negative number. The list shows a part of the results.
# Target: human ether-à-go-go-related gene (hERG) potassium channel (human, UniProt Q12809)
# Assay: primary screen, population patch clamp on CHO cells stably expressing hERG
# 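Further: peak tail current of the secondary pulse compared with the same well before compound.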
# human ether-à-go-go-related gene (hERG) potassium channel, sequence (Q12809 whole entry, looked up): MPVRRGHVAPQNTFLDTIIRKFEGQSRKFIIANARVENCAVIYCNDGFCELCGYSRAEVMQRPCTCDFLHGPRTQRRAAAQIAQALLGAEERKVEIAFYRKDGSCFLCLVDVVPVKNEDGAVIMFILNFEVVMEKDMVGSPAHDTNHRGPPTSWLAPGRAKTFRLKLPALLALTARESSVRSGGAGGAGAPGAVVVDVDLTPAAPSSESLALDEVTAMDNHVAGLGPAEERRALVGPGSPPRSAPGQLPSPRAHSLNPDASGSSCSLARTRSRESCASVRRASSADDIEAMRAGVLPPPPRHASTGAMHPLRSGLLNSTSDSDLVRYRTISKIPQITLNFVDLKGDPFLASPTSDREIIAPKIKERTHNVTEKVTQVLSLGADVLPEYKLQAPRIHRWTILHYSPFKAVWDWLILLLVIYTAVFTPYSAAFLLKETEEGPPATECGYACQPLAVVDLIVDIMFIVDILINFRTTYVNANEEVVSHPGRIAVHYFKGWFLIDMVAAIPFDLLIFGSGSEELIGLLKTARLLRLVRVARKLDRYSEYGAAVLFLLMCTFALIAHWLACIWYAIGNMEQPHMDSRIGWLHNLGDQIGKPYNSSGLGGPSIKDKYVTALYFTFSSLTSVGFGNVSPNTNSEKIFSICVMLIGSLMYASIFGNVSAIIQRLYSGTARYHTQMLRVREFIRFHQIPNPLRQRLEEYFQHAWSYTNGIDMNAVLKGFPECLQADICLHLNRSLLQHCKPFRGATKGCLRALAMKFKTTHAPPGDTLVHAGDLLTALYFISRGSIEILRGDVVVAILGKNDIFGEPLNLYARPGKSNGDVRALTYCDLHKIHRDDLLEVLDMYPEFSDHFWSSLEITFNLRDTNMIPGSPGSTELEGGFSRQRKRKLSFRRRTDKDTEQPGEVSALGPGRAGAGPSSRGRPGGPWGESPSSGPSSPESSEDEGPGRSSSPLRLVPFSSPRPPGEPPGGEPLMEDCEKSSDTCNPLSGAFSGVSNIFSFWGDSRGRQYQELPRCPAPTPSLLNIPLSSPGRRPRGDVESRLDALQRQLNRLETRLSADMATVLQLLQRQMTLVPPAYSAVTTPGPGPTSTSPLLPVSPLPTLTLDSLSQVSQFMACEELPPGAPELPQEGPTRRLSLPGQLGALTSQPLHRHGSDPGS
row,SMILES,"hERG current change (%, negative = inhibition) at 10uM"
1,COc1ccccc1CN1CC(C(=O)NCC2CCCO2)CC1=O (centres unmarked),-4.32%
2,Cc1ccc(C(O)P(=O)(OCc2ccccc2)c2ccc(N(C)C)cc2)cc1 (centres unmarked),13.6%
3,COC(=O)C1C2C=CC3(CN(C(C)c4ccc(OC)cc4)C(=O)C13)O2 (centres unmarked),2.48%
4,COc1cccc(-c2cc(C(=O)N3CCOCC3)no2)c1,18.1%
5,COc1ccc(CNc2nc(NCc3ccc(OC)cc3)n(C(=O)c3ccncc3)n2)cc1,3.83%
6,O=C(CN1C(=O)NC2(CCCC2)C1=O)Nc1cc(S(=O)(=O)N2CCOCC2)ccc1OCC(F)(F)F,6.58%
7,CN(C(=O)c1cn2ccccc2n1)c1c(N)n(Cc2ccccc2)c(=O)[nH]c1=O,15.6%
8,Cc1ccc2cc(CCNS(=O)(=O)c3ccc(F)cc3)c(=O)[nH]c2c1,-14.6%
9,CC(=O)Nc1ccc(NC(=O)c2cc(=O)c3cc(C)c(C)cc3o2)cc1,24.6%
10,CCOc1ccc(CN(C)C(=O)CN2C(=O)NC3(CCCc4ccccc43)C2=O)cc1 (centres unmarked),-28%
11,CN(CC(=O)Nc1ccc(Cl)c(Cl)c1)C1CCCCC1.O=C(O)C(=O)O,-7.28%
12,C(=N\N=C\c1cccs1)/c1cccs1,-2.57%
13,CN(CCOC(=O)CN1C(=O)c2ccccc2C1=O)C1=NS(=O)(=O)c2ccccc21,7.28%
14,CC(C)C1CCC(C(=O)N[C@H](Cc2ccccc2)C(=O)O)CC1 (some centres unmarked),-12.6%
15,CCCS(=O)(=O)c1nc(S(=O)(=O)c2ccc(C)cc2)c(NCc2ccco2)s1,-25.6%
16,Cc1ccc(-c2nc(CS(=O)(=O)CC(=O)N3CCN(C)CC3)c(C)o2)cc1,-6.81%
17,C[C@H]1[C@H](NC(=O)C(=NOC(C)(C)C(=O)O)c2csc(N)n2)C(=O)N1S(=O)(=O)O,15.4%
18,Cc1ccc(OCCN2CCN(C(=O)CCC(=O)Nc3nnc(C)s3)CC2)cc1,-7.69%
19,CSc1cccc(NC(=O)C2CCCN(c3ncnc4c3nc3n4CCCCC3)C2)c1 (centres unmarked),-47.9%

row,SMILES,"hERG current change (%, negative = inhibition) at 10uM"
1,CC(NC(=O)c1ccccc1)c1nnc(SCC(=O)NC2CCCC2)n1C (centres unmarked),13.4%
2,Cc1ccc(NC(=O)CNc2cccc(S(=O)(=O)N3CCCCC3)c2)cc1F,-9.76%
3,CC(CC(=O)N1CCN(c2ccccc2)CC1)c1ccccc1 (centres unmarked),1.87%
4,CCOC(=O)n1c(=O)oc2cc(S(=O)(=O)N3CCOCC3)ccc21,-23.4%
5,Cc1nc(NC(=O)/C=C/c2ccccc2)sc1C(=O)NCCO,26.4%
6,Cc1ccc(S(=O)(=O)N2CCCC2C(=O)NCc2ccco2)cc1 (centres unmarked),4.02%
7,Cc1cccc(C)c1OCC(=O)NNC(=O)Nc1ccc(Cl)cc1,-2.48%
8,COc1cccc(-c2c(C#N)c(N)nc3c2c(C)nn3-c2ccccc2)c1O,-28.1%
9,CNC(=S)NNC(=O)c1cccc(N(C)C)c1,24.1%
10,COc1ccc(Cl)cc1NC(=O)C(C)Sc1nncn1C (centres unmarked),0.256%
11,Cn1cc(CCC(=O)NCCCc2ccccc2)c2ccccc21,-5.31%
12,CC(NC(=O)c1ccc(CS(C)(=O)=O)cc1)C1CC2CCC1C2 (centres unmarked),3.24%
13,CC(C)NC(=O)c1cc2n(n1)C(C(F)(F)F)CC(c1ccco1)N2 (centres unmarked),1.18%
14,CSc1ccc(S(=O)(=O)NCC(=O)OCC(=O)N(C)CC(=O)Nc2ccccc2Cl)cc1[N+](=O)[O-],-10.4%
15,CCOC(=O)C1CCN(C(=O)N(C)C)CC1,17.2%
16,CCC(=O)OCCNc1nc(-c2ccccc2)nc2ccccc12.Cl,3.33%
17,COc1cccc(S(=O)(=O)Nc2cccc(C(=O)N3CCCC3)c2)c1,1.18%
18,COc1cccc(NC(=O)CSc2c3c(nc4ccccc24)CCCC3)c1,-8.68%
19,O=C(NCCN1CCOCC1)/C(=C\c1ccccc1F)NC(=O)c1ccccc1,-26.5%

row,SMILES,"hERG current change (%, negative = inhibition) at 10uM"
1,O=C(N[C@@H](Cc1ccc(O)cc1)C(=O)O)C(c1ccccc1)c1ccccc1,9.42%
2,O=C(Nc1nccs1)C1CCCN(S(=O)(=O)c2cccc3cccnc23)C1 (centres unmarked),-3.72%
3,CC(C)C(c1nnnn1CCc1ccccc1)N1CCSCC1 (centres unmarked),-5.49%
4,COc1cc(OC)nc(Oc2ccccc2C(=O)Oc2ccccc2Cl)n1,-5.8%
5,CC(=O)Nc1sc(C)c(C)c1C(=O)OC1CCOC1=O (centres unmarked),-9.14%
6,CCCCn1c(=O)[nH]c(=O)c2c1nc(-c1ccccc1OC(F)F)n2C,-10.8%
7,CCn1c2ccccc2c2cc(CNCc3ccc(OC)cc3OC)ccc21.O=C(O)C(=O)O,-76.2%
8,CCOc1cc(C)c(S(=O)(=O)Nc2ccc(Cl)cn2)cc1C,19.8%
9,CCc1ccc(NS(=O)(=O)c2ccc3oc(=O)ccc3c2)cc1,-1.91%
10,Cc1cc2cc(CN(Cc3ccco3)C(=O)NCc3ccccc3)c(=O)[nH]c2cc1C,-6.54%
11,Cc1cccc(NC(=O)NNC(=O)CCc2ccccc2)c1,5.32%
12,O=C(O)C(=O)O.c1ccc(-c2cc(N3CCOCC3)nc3ccccc23)cc1,-11.6%
13,CC(C)(C)n1cnc2cc(NCc3cccs3)ccc21,-28.2%
14,C=CCNC(=S)/N=c1/ccccn1CCC,19.2%
15,COc1ccccc1C(c1nnnn1CCc1ccccc1)N1CCCCCC1 (centres unmarked),-7.58%
16,Cc1nc(SCC(=O)Nc2ccc3c(c2)OCCO3)c2oc3ccccc3c2n1,-9.24%
17,COC(=O)c1ccc2c(c1)NC(=O)C(N(CC(C)C)CC(C)C)S2 (centres unmarked),1.28%
18,COc1ccc(/C(O)=C/c2nc3ccc(C(=O)NCCc4cccc(C)c4)cc3[nH]c2=O)cc1OC,-11.2%
